# Measurements: the supplement of paper PMC4466236
# In all, about 33,000 sequences were measured (“E-score (dimensionless, -0.5 to 0.5)”: median about -0.058, highest 2% from about 0.35 on). This is one part of the list.
# Tested on: MvaT
# Test: PBM 8-mer E-score (mean of HK and ME arrays) (E-score (dimensionless, -0.5 to 0.5)); higher = stronger relative binding preference; most listed sequences are background and not binding sites
# Summary of the method: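 Reported values are rank-based E-scores, taken as the mean of two universal arrays and parsed with a custom script. Each 8-mer score falls between -0.5 and 0.5. The arrays, ME and HK, were double-stranded 60-mers with a constant 25-mer primer region and a variable 35-mer region covering all 8-mers. They were probed, by an earlier protocol, with full-length P. aeruginosa MvaT carrying an N-terminal glutathione S-transferase fusion.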
row,Sequence,PBM 8-mer E-score
1,ACTTAACG,0.127
2,CACGCTGC,-0.175
3,CAAGAGGC,-0.231
4,ATGTTCGC,-0.117
5,AAAGCGGT,-0.0387
6,CAGTGGGA,-0.137
7,GGGTTGGA,-0.0672
8,CATCAAAC,0.0329
9,AAATAGTG,0.136
10,CCCACAAA,0.0328
11,CTTACGGA,-0.0455
12,CGGAGAAG,-0.204
13,GACTGGAA,0.0566
14,AGTAAGAT,0.171
15,AACTCTCA,0.0312
16,CTCCTGGC,-0.241
17,GGTTGTTA,0.0313
18,CGAACCAG,-0.104
19,AATGCAAT,0.2
20,CCCTGTCA,-0.266
21,ATCGAGCG,-0.0148
22,AGGGCAGA,-0.0894
23,ACCCTGGA,-0.274
24,TCTACCAA,0.0372
25,ACGGTTGA,-0.0318

row,Sequence,PBM 8-mer E-score
1,AGTACCCG,-0.155
2,AAAATTCA,0.107
3,CAAAGGTC,-0.184
4,GATCTACA,0.0246
5,ACAGACCT,-0.194
6,GGGAACGA,-0.193
7,AGTCTTCG,0.0111
8,AATCGGAT,-0.00202
9,CCAGTCGA,-0.143
10,CCCACGGG,-0.324
11,ACCAGTGC,-0.188
12,AAGTGAGT,0.0661
13,CGGTAAGA,-0.0992
14,GTGCACTA,-0.0182
15,AAGGAAGG,-0.24
16,GCTGTCAA,-0.0269
17,TCAGAACA,0.0164
18,CACTAGTC,-0.0038
19,CAAGCTCC,-0.092
20,AACTGTGC,0.00815
21,GGCACCAC,-0.0923
22,AATTCCCT,-0.0297
23,CATTGCGC,-0.146
24,ATAGACCA,-0.0371
25,TCCCCAGA,-0.221

row,Sequence,PBM 8-mer E-score
1,ATCACCGA,-0.178
2,GCGAGTAA,0.123
3,TAAGTATA,0.282
4,AGGCGCCC,-0.404
5,CGACAGTA,0.107
6,ACAAAGTA,0.179
7,AGTACATC,0.154
8,AACACACC,0.0682
9,ATATTGCC,0.234
10,CGGCTGGA,-0.208
11,ACGCCCAA,-0.0508
12,AAAGTAAC,0.206
13,ACCTCTAG,-0.023
14,AGTGAATA,0.113
15,GGCGCAAC,-0.0502
16,AGTAATAC,0.297
17,CGGCTAAA,-0.0268
18,GACGCGTC,-0.0993
19,GTTCCGTA,-0.0296
20,ACTAGAAG,0.0485
21,AGGATGCG,-0.183
22,AAAAAGAT,0.231
23,CTCCCCGC,-0.157
24,AGGAAGTA,0.162
25,AACATGCG,0.00306

row,Sequence,PBM 8-mer E-score
1,CCTAACGA,-0.147
2,AAAAGGGA,-0.0403
3,AAACACTA,0.33
4,GTATACCA,0.195
5,GGCCCCGA,-0.268
6,GAACCAGA,-0.143
7,AGATAGAG,0.0268
8,CAAGTTCC,0.0897
9,AAGTAGCG,0.0717
10,CGGTCAAG,-0.217
11,ACGCATCA,-0.0743
12,CAGTTGAA,0.103
13,ACTGTAAC,0.246
14,CGGGTGCC,-0.223
15,AGTTTTAC,0.221
16,CTTGACCA,0.0132
17,CGCGTTGC,-0.203
18,ATGGCACC,-0.128
19,ACGTGGTG,-0.245
20,TGTTTGAA,0.217
21,AGAATTCG,0.0867
22,GGGGGTCA,-0.298
23,ATCCACGC,-0.0396
24,GTAATGAC,-0.00906
25,GTTTTACA,0.177

row,Sequence,PBM 8-mer E-score
1,CTCTATTC,-0.0516
2,CTTCTCAA,-0.0991
3,CACTGCGA,0.035
4,ACGTGCTA,0.0354
5,CAATTCGC,0.0872
6,CTGGGTTC,-0.126
7,AGGAGACA,-0.0249
8,GTAAGAGA,0.0563
9,ACCTTTAT,0.263
10,GCGTACCC,-0.267
11,GTCTAAGA,-0.0293
12,GTAGGTTA,0.07
13,GCATCGGC,-0.213
14,GGCGGAGA,-0.14
15,CGCGTTGA,-0.0847
16,CCGAAGAC,-0.0827
17,GGAAGCCC,-0.254
18,CTCTAGCC,-0.267
19,ATCCAGGC,-0.224
20,AACCCGAG,-0.115
21,CTCGCCGC,-0.241
22,CGTAGAGA,-0.0538
23,ACCGGAGA,-0.162
24,GCCCTCAA,-0.0921
25,CTGTCGTA,-0.0425

row,Sequence,PBM 8-mer E-score
1,CGATATAC,0.219
2,GGTCCCTA,-0.264
3,ATTTGTAA,0.3
4,CAGCCCTA,-0.177
5,CTAACAGC,-0.0919
6,TCGTCCCA,-0.183
7,ATAGCCGA,-0.0375
8,AACGCAGT,-0.1
9,GGGATCTA,-0.143
10,GGGTTCAC,-0.111
11,ATGCTGTA,0.0844
12,GAGTATCC,-0.0443
13,CATAGACC,-0.0627
14,GAGTATCA,0.0268
15,TCGCATCA,-0.0785
16,CAGTAGTA,0.13
17,ATGATCAG,-0.0537
18,AAGTGCTC,-0.139
19,CTCAGTGA,-0.00555
20,GCTGTAGA,-0.293
21,ACAATTCT,0.122
22,ACCACCAA,0.0915
23,ATGTGAAA,0.195
24,CTTGTAAA,0.192
25,GCAGGGAA,-0.147

row,Sequence,PBM 8-mer E-score
1,CTTCTACA,-0.00652
2,CGCCAACA,-0.0157
3,GGGGAGGA,-0.402
4,AAAACCGT,-0.101
5,AGCTTCCT,-0.2
6,AATCGGAA,0.0103
7,AGTAATGG,0.124
8,ATGGTTGG,0.00713
9,GAACCTTA,-0.126
10,AGGACCCG,-0.183
11,ATTTCGTG,0.082
12,ACTCACAC,0.0585
13,AACAGAGG,-0.0504
14,GTCCAAAC,0.0418
15,CGTACGTC,-0.176
16,GTACCATA,0.203
17,AGAGGTTG,-0.105
18,AAATAGAC,0.102
19,AAGCAACA,-0.00961
20,CAGGGTGC,-0.229
21,CCGTCCGC,-0.108
22,GATGAGAA,-0.0627
